Laboratory results reported in PubChem BioAssay AID2060489 (Molecular Pharmacology Branch, DTP, NCI, 2025).
The source holds more than one record for some entries. This list holds those alone. There may be further records. The records of an entry repeat one measurement in other runs, samples, wells, individuals or studies. Additions like (4×) give the number of equal values in this list.

System: 922993-354-T-J3-PDC complex spheroids, viability
Experiment: Anticancer human tumor 922993-354-T-J3-PDC patient-derived endometrial carcinoma cell line growth inhibition [GQUAD]
Details: for viability, T/C: stronger effect = lower value
Source text: DNA G-quadruplex Stabilizer Agents in Combinations in Complex Spheroids
A high-throughput screen of multi-cell type tumor spheroids was designed to identify active combinations of DNA G-quadruplex stabilizer agents and targeted small molecules. Complex spheroids include a stromal component modeled by human endothelial cells (HUVEC) and fibroblasts modeled by human mesenchymal stem cells (MSCs). The concentration ranges selected for each drug and investigational agent were based upon clinically achievable concentrations if the clinical Cmax of the agent was known.
Compounds. The drugs and investigational agents: pidnarulex (CX-5461; NSC782164), APTO-253 (NSC789042), BRACO-19 (NSC847499), peposertib (NSC802822), ceralasertib (NSC780249), elimusertib (NSC800525), camonsertib (NSC841442), AZD-1390 (NSC803789), olaparib (NSC753686), talazoparib (NSC767125), ART-558 (NSC835418), sotorasib (NSC818433), MRTX-1133 (NSC836407), SN-38 (NSC673596), topotecan (NSC609699), etoposide (NSC141540), doxorubicin (NSC123127), gemcitabine (NSC613327), 5-fluorouracil (NSC19893), paclitaxel (NSC125973), vemurafenib (NSC761431), panobinostat (NSC761190), R-306465 (JNJ-16241199; NSC773264), adavosertib (NSC754352), TP-3654 (NSC805149), carboplatin (NSC241240), KSQ-4279 (NSC840948), and staurosporine (NSC755774) were obtained from the National Cancer Institute (NCI) Developmental Therapeutics Program Chemical Repository (34). The FDA-approved anticancer drug set is available from the NCI Developmental Therapeutics Program. […] The stock solutions were prepared in dimethyl sulfoxide (DMSO, Sigma-Aldrich, St. Louis, MO, cat. D2650) at 800-fold the tested concentration and stored at -70 degrees C prior to their use. All drugs and investigational agents were tested over a range starting from a high concentration at or near the clinical Cmax and decreasing in half-log increments. If the clinical Cmax for an agent had not been determined, the highest concentration tested was 10 microM.
2.3 Cell Culture. All cells were maintained in an incubator at 37 degrees C and 5% CO2 with 95% humidity. The PDC lines were cultured according to standard operating procedures established by the NCI PDMR. All PDCs were thawed and cultured in Matrigel-coated flasks prepared with a working solution of 1X Ham's F-12 nutrient mix, without supplementation (Invitrogen, cat. 11765054), 100 U/mL penicillin-streptomycin (Invitrogen, cat. 15140122), and 2.5% Matrigel (Corning Inc., cat. 354248) for the first three passages. The 857933-349-R-J2-PDC line was cultured in 6C/Colon 1B media, which includes advanced DMEM/F-12 (Thermo Fisher Scientific, cat. 12634028), 10 mM HEPES (Thermo Fisher Scientific, cat. 15630080), 1X GlutaMAX supplement (Thermo Fisher Scientific, cat. 35050061), 0.1 mg/mL primocin (InvivoGen, cat. ant-pm-2), 10% defined fetal bovine serum, heat inactivated (HyClone Laboratories Inc., cat. SH30070.03HI), 50% L-WRN conditioned media (ATCC, cat. CRL-3276), 1.25 mM N-Acetyl-L-cysteine (Sigma-Aldrich, cat. A9165), 10 mM nicotinamide (Sigma-Aldrich, cat. N0636), 1X B-27 supplement (Thermo Fisher Scientific, cat. 17504044), 1X N-2 supplement (Thermo Fisher Scientific, cat. 17502048), 10 microM Y-27632 dihydrochloride (Tocris Bioscience, cat. 1254), and 50 ng/mL human EGF recombinant protein (Thermo Fisher Scientific, cat. PHG0311). The 485176-168-R4-J1-PDC line was cultured in Panc media, which includes all 6C/Colon 1B media components plus 100 ng/mL human FGF-10 (Thermo Fisher Scientific, cat. 100-26), 500 nM SB-431542 (Selleckchem, cat. S1067), and gastrin (Tocris, cat. 3006).
[…]
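Further: spheroids exposed to compounds for seven days.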
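Wherever viability, T/C is given: 100% = DMSO vehicle control viability.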

Row | Compound | viability, T/C (compound alone 0.0316 µM) | viability, T/C (compound alone 0.1 µM) | viability, T/C (compound alone 0.316 µM) | viability, T/C (compound alone 1 µM) | viability, T/C (compound alone 3.16 µM) | viability, T/C (compound alone 10 µM) | IC50 (compound alone, run of 03/18/2024)
1 | Cc1[nH]c2ccc(F)cc2c1-c1nc2c3cccnc3c3ncccc3c2[nH]1 | 85, 90.4 (2×), 101 (2×), 80.6, 91, 97.1, 106 (2×), 94.7, 112% | 106, 110 (2×), 101, 99, 97.5, 108, 97.2, 78.2, 96.1, 96.2, 88.2% | 86.2, 98.5, 105, 118, 97.8, 116, 113, 119, 102, 98.9, 104, 107% | 86.1, 107, 108, 105, 68.8, 98.7, 89.4, 110, 103, 109, 98.4, 99.1% | 69.4, 107 (2×), 99.7, 112, 80.7, 96, 89.7, 118, 97.1, 102, 114% | – | –
2 | CN(C)c1ccc(Nc2c3ccc(NC(=O)CCN4CCCC4)cc3nc3cc(NC(=O)CCN4CCCC4)ccc23)cc1 | 93, 95.5, 106 (2×), 99.6, 91.4, 93.9, 102, 98.3, 87.6, 82.9, 108% | 112, 80.8, 115, 129, 103, 88.4, 104, 76.8, 106, 87.2, 102, 95.3% | – | 95.5, 90.2, 98.7, 107, 93.6, 83.5, 96.8, 87, 102, 101, 99.3, 112% | 104 (3×), 118, 134, 102, 112 (2×), 98.9, 93.3, 97, 107% | 107, 112, 124 (2×), 129, 105 (2×), 114, 102, 108 (2×), 87.1% | –
3 | Cc1cnc(CNC(=O)c2c(=O)c3ccc(N4CCCN(C)CC4)nc3n3c2sc2ccccc23)cn1 | – | – | 42.8, 49, 48.4, 48.6, 59.4, 50, 36.6, 57.9, 52.2, 52.4, 54.3, 63.2% | – | – | – | 206 nM, > 10 µM, 10 µM, 933 nM, 5.13 µM, 368 nM, 256 nM, 1.47 µM, 498 nM, 614 nM, 3.65 µM
